According to the supplement of paper PMC12217912:
The list shows a part of the results. Sequences were assembled here from the parent chain. Inactive controls read about 0.05.

B1: TEV protease; numbered along this chain (parent)
chain: MGESLFKGPRDYNPISSSICHLTNESDGHTTSLYGIGFGPFIITNKHLFRRNNGTLVVQSLHGVFKVKDTTTLQQHLVDGRDMIIIRMPKDFPPFPQKLKFREPQREERICLVTTNFQTKSMSSMVSDTSCTFPSGDGIFWKHWIQTKDGQCGSPLVSTRDGFIVGIHSASNFTNTNNYFTSVPKNFMELLTNQEAQQWVSGWRLNADSVLWGGHKVFMVKPEEPFQPVKEATQL

Variants of: B1
Assay: raw area under fraction-flipped curve 0-4 h after induction (AUC4h, not background-subtracted), DNA-recorder readout of cleavage of the substrate (dimensionless); higher = more cleavage of the substrate by the protease variant
Details: temperature: 34 °C; time window: 0-4 h after rhamnose induction
Experimental: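 In vivo DNA recorder in E. coli TOP10(DE3) ΔrhaA at 34 °C. Each TEVp single-site mutant (parent TEVp 0) is paired with a single-site variant of the 7-mer TEVs (canonical ENLYFQ|S). The substrate sits between flexible linkers in a Bxb1-sfGFP-TEVs-SsrA fusion, so cleavage stabilises Bxb1 and speeds flipping of a recombination array, read by NGS. The value is the raw area under the fraction-flipped curve over 0-4 h after rhamnose induction (AUC4h), with ≥20 reads per time point. It is not background-subtracted; inactive controls average about 0.047.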
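Also: Bxb1 expression induced with 0.2% (w/v) L-rhamnose at OD600 near 0.5, cultures sampled hourly, flipped fraction per protease–substrate barcode pair counted by paired-end Illumina sequencing.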

| Variant | area with substrate ENLYFQA | area with substrate ENLYFQC | area with substrate ENLYFQG | area with substrate ENLYFQH | area with substrate ENLYFQI | area with substrate ENLYFQK | area with substrate ENLYFQM | area with substrate ENLYFQN | area with substrate ENLYFQR | area with substrate ENLYFQS | area with substrate ENLYFQT | area with substrate ENLYFQV | area with substrate ENLYFQW | area with substrate ENLYFQL | area with substrate ENLYFQQ | area with substrate ENLYFQY | area with substrate ENLYFQF | area with substrate ENLYFQD | area with substrate ENLYFQE | area with substrate ENLYFQP |
| --- | --- | --- | --- | --- | --- | --- | --- | --- | --- | --- | --- | --- | --- | --- | --- | --- | --- | --- | --- | --- |
| G136I | 0.14 | 0.135 | 0.0909 | 0.145 | 0.0597 | 0.0617 | 0.141 | 0.0854 | 0.0555 | 0.102 | 0.0588 | 0.0428 | 0.0655 | – | – | – | – | – | – | – |
| T30M | 0.129 | 0.114 | 0.0993 | 0.0928 | 0.0585 | – | 0.0895 | 0.0846 | 0.0603 | 0.105 | 0.0611 | – | – | 0.0641 | 0.0672 | 0.0682 | – | – | – | – |
| G162T | 0.0886 | 0.118 | 0.0755 | – | 0.0381 | – | 0.0772 | 0.0664 | – | 0.0907 | – | – | – | 0.0554 | – | 0.0739 | 0.0752 | – | – | – |
| F117Y | 0.0681 | – | – | – | – | 0.0549 | 0.0919 | 0.0847 | 0.0374 | 0.107 | – | – | – | – | – | – | 0.0885 | 0.0722 | 0.0683 | 0.0822 |
| G63P | 0.102 | 0.0828 | 0.0673 | 0.0539 | 0.0459 | 0.0456 | 0.0635 | – | 0.0563 | 0.0693 | 0.0579 | – | 0.0534 | 0.0496 | – | – | – | 0.0656 | – | 0.0496 |
| H143Q | 0.0604 | – | – | 0.054 | 0.0578 | 0.05 | 0.0591 | 0.0439 | 0.0544 | 0.0612 | 0.0516 | 0.0654 | 0.0668 | 0.0551 | 0.0477 | 0.0581 | – | – | 0.0548 | – |
| E223P | 0.0664 | 0.0991 | 0.0909 | – | 0.0725 | – | 0.0725 | – | 0.0539 | 0.09 | 0.0745 | – | 0.0468 | 0.0641 | – | 0.0941 | – | 0.064 | – | – |
| G35F | 0.0653 | 0.049 | 0.0407 | – | 0.0366 | 0.0458 | – | – | – | 0.0362 | 0.0442 | 0.0247 | – | – | – | – | – | – | – | – |
| N178P | 0.0613 | – | – | – | – | 0.0738 | 0.0537 | 0.0657 | 0.0503 | 0.0705 | 0.0602 | – | – | 0.0477 | – | – | 0.0545 | – | 0.0394 | 0.0449 |
| R109S | 0.128 | – | – | 0.08 | 0.0629 | 0.0688 | 0.072 | 0.0793 | 0.0654 | 0.0929 | 0.0645 | 0.0878 | 0.0662 | – | – | 0.0729 | 0.0834 | 0.0845 | – | 0.0548 |
| A170L | 0.056 | 0.0601 | 0.0515 | – | – | – | – | 0.0133 | – | 0.0634 | 0.0655 | – | 0.0603 | 0.0623 | – | 0.0577 | – | – | – | 0.0532 |
| T233A | 0.0929 | – | – | 0.0872 | 0.0683 | – | 0.0831 | – | – | 0.101 | – | – | – | 0.0442 | 0.0833 | – | – | 0.0647 | – | – |
| G8H | 0.108 | – | – | – | – | – | – | – | – | 0.11 | – | – | 0.071 | – | – | – | – | – | – | – |
| W203H | 0.069 | – | 0.159 | – | 0.0527 | 0.0668 | 0.0814 | 0.0569 | 0.0591 | 0.0712 | 0.0563 | 0.0578 | – | – | 0.0773 | 0.0774 | 0.0576 | 0.057 | – | – |
| T31M | 0.107 | 0.116 | 0.122 | – | – | 0.0571 | – | – | 0.0468 | 0.0982 | – | – | 0.0681 | – | 0.061 | – | 0.0847 | – | – | 0.0761 |
| V126K | 0.0919 | 0.122 | 0.095 | 0.0749 | 0.0472 | – | 0.0972 | 0.0752 | 0.0705 | 0.102 | – | – | – | 0.0567 | – | 0.0954 | – | – | – | – |
| F65C | 0.0813 | – | 0.0876 | 0.0822 | 0.0431 | – | 0.0727 | 0.0848 | – | 0.0995 | 0.0622 | 0.0528 | 0.0565 | 0.0642 | – | 0.0573 | – | – | – | – |

| Variant | area with substrate ENLYFQA | area with substrate ENLYFQC | area with substrate ENLYFQG | area with substrate ENLYFQH | area with substrate ENLYFQI | area with substrate ENLYFQK | area with substrate ENLYFQM | area with substrate ENLYFQN | area with substrate ENLYFQR | area with substrate ENLYFQS | area with substrate ENLYFQT | area with substrate ENLYFQV | area with substrate ENLYFQW | area with substrate ENLYFQL | area with substrate ENLYFQQ | area with substrate ENLYFQY | area with substrate ENLYFQF | area with substrate ENLYFQD | area with substrate ENLYFQE | area with substrate ENLYFQP |
| --- | --- | --- | --- | --- | --- | --- | --- | --- | --- | --- | --- | --- | --- | --- | --- | --- | --- | --- | --- | --- |
| V220H | 0.104 | 0.138 | 0.116 | 0.0534 | – | 0.0675 | 0.0915 | – | 0.0558 | 0.117 | 0.075 | 0.074 | 0.0742 | 0.0541 | – | 0.0793 | 0.0775 | 0.0709 | – | – |
| F92M | 0.0993 | – | 0.125 | – | 0.0483 | – | 0.0893 | – | – | 0.12 | 0.0553 | – | – | 0.0724 | – | – | 0.0829 | – | 0.0488 | – |
| F49T | 0.0591 | 0.0667 | 0.0527 | 0.0841 | 0.0556 | 0.0508 | 0.0361 | – | 0.0516 | 0.0609 | – | 0.0583 | 0.0585 | 0.0523 | 0.0453 | – | – | – | – | – |
| V57P | 0.048 | – | 0.047 | – | – | – | – | 0.0451 | 0.0438 | 0.0495 | – | – | 0.0382 | 0.0415 | – | 0.0431 | – | 0.0558 | – | – |
| K90D | 0.0758 | – | – | – | – | 0.0754 | – | – | 0.0581 | 0.108 | – | – | – | – | – | – | – | – | – | – |
| G162E | 0.0902 | 0.106 | – | – | 0.0613 | – | 0.0639 | – | 0.054 | 0.0921 | 0.0622 | – | 0.0594 | 0.0787 | – | – | 0.0792 | 0.0484 | – | 0.0551 |
| V217M | – | 0.124 | – | – | 0.0679 | – | 0.0813 | 0.0666 | 0.05 | 0.0956 | 0.057 | 0.0735 | 0.0579 | 0.0624 | – | – | 0.0486 | 0.0597 | – | – |
| I84Y | – | 0.0822 | – | – | 0.049 | 0.0676 | 0.0518 | 0.0545 | – | 0.0569 | 0.035 | – | – | 0.0559 | – | 0.0504 | – | – | – | – |
| Q151K | – | 0.0649 | – | 0.0734 | 0.066 | – | 0.0755 | – | – | 0.0863 | 0.057 | – | – | 0.0784 | – | – | – | – | – | – |
| F92W | – | 0.103 | – | – | – | – | 0.095 | 0.103 | – | 0.114 | 0.0544 | – | – | 0.0638 | – | 0.0885 | – | 0.0665 | – | – |
| R109D | – | 0.119 | – | – | – | 0.0721 | – | 0.0815 | – | 0.0953 | 0.0563 | – | 0.0537 | 0.0678 | 0.0539 | – | – | – | – | 0.0735 |
| S154E | – | 0.0883 | – | – | – | – | 0.0654 | 0.0537 | 0.0497 | 0.0804 | – | – | 0.05 | – | – | – | – | – | 0.0444 | – |
| S171R | – | 0.105 | 0.0467 | – | 0.0431 | – | 0.0619 | – | – | 0.0926 | – | – | 0.043 | – | – | – | – | – | – | 0.077 |
| C20I | – | 0.147 | – | 0.0701 | 0.0535 | 0.0503 | 0.0844 | – | 0.0512 | 0.0959 | 0.061 | 0.0421 | 0.0825 | 0.0591 | 0.0806 | 0.067 | – | – | 0.0515 | – |
| F101P | – | 0.0624 | 0.0485 | 0.0553 | – | 0.0508 | 0.0317 | 0.0405 | – | 0.0546 | 0.0531 | 0.0603 | – | 0.0492 | – | 0.0598 | – | – | – | 0.0354 |
| I85E | – | 0.049 | – | – | – | – | – | – | 0.0597 | 0.0441 | – | – | 0.0393 | 0.0409 | – | – | – | – | – | – |
